# This is one part of the list.
# B1: RBMC2 (Vibrio cholerae) (protein)
# chain: KISVRSGFAIDAIGASASTLVGGTGGNLNAAVNVKDIKAIDLTWGKYYWGGYHLLALDFRMSNGSVISMGSKNYAYSKQTERFTVPAGSRIKGIKAWTAGWLLDGVQFELA
# Key:
# Experiment in all cases: glycan array binding signal (z-score within array); higher = stronger binding
# Conditions in all cases: glycan notation: IUPAC condensed, linker removed
# [1] = target: Fuc(a1-2)[GalNAc(a1-3)]Gal(b1-3)GlcNAc(b1-6)GalNAc
# Outline: (§1)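 Negative Z-scores can be read as non-binding. The Z-score is calculated within each array and then averaged across arrays of one protein sequence at different concentrations or buffers and across linkers. Arrays, 3228 in all, were curated from the Consortium for Functional Glycomics database and kept only where the protein sequence was available.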
# [2] = target: Fuc(a1-2)[GalNAc(a1-3)]Gal(b1-4)Glc
# Outline: as §1
# [3] = target: Fuc(a1-2)[GalNAc(a1-3)]Gal(b1-4)GlcNAc
# Outline: as §1
# [4] = target: Fuc(a1-2)[GalNAc(a1-3)]Gal(b1-4)GlcNAc(b1-2)Man
# Outline: as §1
# [5] = target: Fuc(a1-2)[GalNAc(a1-3)]Gal(b1-4)GlcNAc(b1-2)Man(a1-3)[Fuc(a1-2)[GalNAc(a1-3)]Gal(b1-4)GlcNAc(b1-2)Man(a1-6)]Man(b1-4)GlcNAc(b1-4)GlcNAc
# Outline: as §1
# [6] = target: Fuc(a1-2)[GalNAc(a1-3)]Gal(b1-4)GlcNAc(b1-2)Man(a1-3)[Fuc(a1-2)[GalNAc(a1-3)]Gal(b1-4)GlcNAc(b1-2)Man(a1-6)]Man(b1-4)GlcNAc(b1-4)[Fuc(a1-6)]GlcNAc
# Outline: as §1
# [7] = target: Fuc(a1-2)[GalNAc(a1-3)]Gal(b1-4)GlcNAc(b1-3)Gal(b1-4)GlcNAc
# Outline: as §1
# [8] = target: Fuc(a1-2)[GalNAc(a1-3)]Gal(b1-4)GlcNAc(b1-3)Gal(b1-4)GlcNAc(b1-3)Gal(b1-4)GlcNAc
# Outline: as §1
# [9] = target: Fuc(a1-2)[GalNAc(a1-3)]Gal(b1-4)GlcNAc(b1-3)GalNAc
# Outline: as §1
# [10] = target: Fuc(a1-2)[GalNAc(a1-3)]Gal(b1-4)GlcNAc(b1-3)[Fuc(a1-2)[GalNAc(a1-3)]Gal(b1-4)GlcNAc(b1-6)]GalNAc
# Outline: as §1
# [11] = target: Fuc(a1-2)[GalNAc(a1-3)]Gal(b1-4)GlcNAc(b1-6)GalNAc
# Outline: as §1
# [12] = target: Fuc(a1-2)[GalNAc(a1-3)]Gal(b1-4)[Fuc(a1-3)]GlcNAc
# Outline: as §1
# [13] = target: Fuc(a1-2)[GalNAc(a1-3)]Gal(b1-4)[Fuc(a1-3)]GlcNAc(b1-3)GalNAc
# Outline: as §1
# [14] = target: Fuc(a1-2)[GalNAc(a1-4)]Gal(b1-4)GlcNAc
# Outline: as §1
# [15] = target: Fuc(a1-2)[GalNAc(b1-3)]Gal
# Outline: as §1
# Fuc(a1-3)GlcNAc = target: Fuc(a1-3)GlcNAc
# Outline: as §1
# [16] = target: Fuc(a1-3)[Gal(b1-4)]Glc6S
# Outline: as §1
# [17] = target: Fuc(a1-3)[Gal(b1-4)]GlcNAc
# Outline: as §1
# [18] = target: Fuc(a1-3)[Gal(b1-4)]GlcNAc(b1-2)Man
# Outline: as §1
# [19] = target: Fuc(a1-3)[Gal(b1-4)]GlcNAc(b1-2)Man(a1-3)[Fuc(a1-3)[Gal(b1-4)]GlcNAc(b1-2)Man(a1-6)]Man(b1-4)GlcNAc(b1-4)GlcNAc
# Outline: as §1
# [20] = target: Fuc(a1-3)[Gal(b1-4)]GlcNAc(b1-2)Man(a1-3)[Fuc(a1-3)[Gal(b1-4)]GlcNAc(b1-2)Man(a1-6)]Man(b1-4)GlcNAc(b1-4)[Fuc(a1-6)]GlcNAc
# Outline: as §1
# [21] = target: Fuc(a1-3)[Gal(b1-4)]GlcNAc(b1-3)Gal(b1-3)[Fuc(a1-4)]GlcNAc
# Outline: as §1
# [22] = target: Fuc(a1-3)[Gal(b1-4)]GlcNAc(b1-3)Gal(b1-4)[Fuc(a1-3)]GlcNAc
# Outline: as §1
# [23] = target: Fuc(a1-3)[Gal(b1-4)]GlcNAc(b1-3)Gal(b1-4)[Fuc(a1-3)]GlcNAc(b1-3)Gal(b1-4)[Fuc(a1-3)]GlcNAc
# Outline: as §1
# [24] = target: Fuc(a1-3)[Gal(b1-4)]GlcNAc(b1-3)GalNAc
# Outline: as §1
# [25] = target: Fuc(a1-3)[Gal(b1-4)]GlcNAc(b1-6)GalNAc
# Outline: as §1
# [26] = target: Fuc(a1-3)[Gal(b1-4)]GlcNAc(b1-6)[Gal(b1-3)GlcNAc(b1-3)]Gal(b1-4)Glc
# Outline: as §1
# [27] = target: Fuc(a1-3)[Gal(b1-4)]GlcNAc6S
# Outline: as §1
# [28] = target: Fuc(a1-3)[Gal3S(b1-4)]Glc
# Outline: as §1
# [29] = target: Fuc(a1-3)[Gal3S(b1-4)]GlcNAc
# Outline: as §1
# [30] = target: Fuc(a1-3)[Gal3S(b1-4)]GlcNAc6S
# Outline: as §1
# [31] = target: Fuc(a1-3)[GalNAc(b1-4)]GlcNAc
# Outline: as §1
# [32] = target: Fuc(a1-3)[GalNAc(b1-4)]GlcNAc6S
# Outline: as §1
# Fuc(a1-4)GlcNAc = target: Fuc(a1-4)GlcNAc
# Outline: as §1
# Fuc(b1-3)GlcNAc = target: Fuc(b1-3)GlcNAc
# Outline: as §1
# Gal(a1-2)Gal = target: Gal(a1-2)Gal
# Outline: as §1
# Gal(a1-3)Gal = target: Gal(a1-3)Gal
# Outline: as §1
binder,measurement,setting,value
B1,glycan array binding signal (z-score),[1],-0.361
same,glycan array binding signal (z-score),[2],-0.35
same,glycan array binding signal (z-score),[3],-0.402
same,glycan array binding signal (z-score),[4],-0.44
same,glycan array binding signal (z-score),[5],0.184
same,glycan array binding signal (z-score),[6],-0.035
same,glycan array binding signal (z-score),[7],-0.171
same,glycan array binding signal (z-score),[8],-0.282
same,glycan array binding signal (z-score),[9],-0.327
same,glycan array binding signal (z-score),[10],-0.308
same,glycan array binding signal (z-score),[11],-0.46
same,glycan array binding signal (z-score),[12],-0.4
same,glycan array binding signal (z-score),[13],-0.136
same,glycan array binding signal (z-score),[14],-0.416
same,glycan array binding signal (z-score),[15],-0.141
same,glycan array binding signal (z-score),Fuc(a1-3)GlcNAc,-0.337
same,glycan array binding signal (z-score),[16],0.179
same,glycan array binding signal (z-score),[17],-0.371
same,glycan array binding signal (z-score),[18],-0.24
same,glycan array binding signal (z-score),[19],-0.333
same,glycan array binding signal (z-score),[20],-0.248
same,glycan array binding signal (z-score),[21],-0.373
same,glycan array binding signal (z-score),[22],-0.223
same,glycan array binding signal (z-score),[23],-0.353
same,glycan array binding signal (z-score),[24],-0.318
same,glycan array binding signal (z-score),[25],-0.4
same,glycan array binding signal (z-score),[26],-0.282
same,glycan array binding signal (z-score),[27],0.047
same,glycan array binding signal (z-score),[28],-0.386
same,glycan array binding signal (z-score),[29],-0.407
same,glycan array binding signal (z-score),[30],-0.435
same,glycan array binding signal (z-score),[31],-0.311
same,glycan array binding signal (z-score),[32],-0.377
same,glycan array binding signal (z-score),Fuc(a1-4)GlcNAc,-0.004
same,glycan array binding signal (z-score),Fuc(b1-3)GlcNAc,-0.387
same,glycan array binding signal (z-score),Gal(a1-2)Gal,-0.418
same,glycan array binding signal (z-score),Gal(a1-3)Gal,-0.3
